Test results as given in the supplement of paper PMC3334620.
In all, about 33,000 sequences were measured (“E-score (-0.5 to 0.5)”: median about -0.053, highest 2% from about 0.37 on). The list shows a part of the results.

Biological target: Hap1 (UniProt P0CE41)
Experiment: PBM E-score (8-mer binding enrichment) (E-score (-0.5 to 0.5)); higher = stronger / more preferred TF binding; most listed sequences are background and not binding sites
Conditions: protein concentration: 200 nM; construct: GST-DNA-binding domain
In short: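 PURExpress in vitro transcription/translation supplied GST-tagged yeast transcription factors, either full-length or DNA-binding domain. Applied at about 100-200 nM to universal all-10-mer Agilent arrays double-stranded by primer extension, the bound protein was detected with fluorescent anti-GST. E-scores, modified Wilcoxon-Mann-Whitney statistics, were given by the Universal PBM Analysis Suite to ungapped eight-base words pooled with their reverse complements after masliner normalisation.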

Sequence of UniProt P0CE41 (P0CE41 whole entry): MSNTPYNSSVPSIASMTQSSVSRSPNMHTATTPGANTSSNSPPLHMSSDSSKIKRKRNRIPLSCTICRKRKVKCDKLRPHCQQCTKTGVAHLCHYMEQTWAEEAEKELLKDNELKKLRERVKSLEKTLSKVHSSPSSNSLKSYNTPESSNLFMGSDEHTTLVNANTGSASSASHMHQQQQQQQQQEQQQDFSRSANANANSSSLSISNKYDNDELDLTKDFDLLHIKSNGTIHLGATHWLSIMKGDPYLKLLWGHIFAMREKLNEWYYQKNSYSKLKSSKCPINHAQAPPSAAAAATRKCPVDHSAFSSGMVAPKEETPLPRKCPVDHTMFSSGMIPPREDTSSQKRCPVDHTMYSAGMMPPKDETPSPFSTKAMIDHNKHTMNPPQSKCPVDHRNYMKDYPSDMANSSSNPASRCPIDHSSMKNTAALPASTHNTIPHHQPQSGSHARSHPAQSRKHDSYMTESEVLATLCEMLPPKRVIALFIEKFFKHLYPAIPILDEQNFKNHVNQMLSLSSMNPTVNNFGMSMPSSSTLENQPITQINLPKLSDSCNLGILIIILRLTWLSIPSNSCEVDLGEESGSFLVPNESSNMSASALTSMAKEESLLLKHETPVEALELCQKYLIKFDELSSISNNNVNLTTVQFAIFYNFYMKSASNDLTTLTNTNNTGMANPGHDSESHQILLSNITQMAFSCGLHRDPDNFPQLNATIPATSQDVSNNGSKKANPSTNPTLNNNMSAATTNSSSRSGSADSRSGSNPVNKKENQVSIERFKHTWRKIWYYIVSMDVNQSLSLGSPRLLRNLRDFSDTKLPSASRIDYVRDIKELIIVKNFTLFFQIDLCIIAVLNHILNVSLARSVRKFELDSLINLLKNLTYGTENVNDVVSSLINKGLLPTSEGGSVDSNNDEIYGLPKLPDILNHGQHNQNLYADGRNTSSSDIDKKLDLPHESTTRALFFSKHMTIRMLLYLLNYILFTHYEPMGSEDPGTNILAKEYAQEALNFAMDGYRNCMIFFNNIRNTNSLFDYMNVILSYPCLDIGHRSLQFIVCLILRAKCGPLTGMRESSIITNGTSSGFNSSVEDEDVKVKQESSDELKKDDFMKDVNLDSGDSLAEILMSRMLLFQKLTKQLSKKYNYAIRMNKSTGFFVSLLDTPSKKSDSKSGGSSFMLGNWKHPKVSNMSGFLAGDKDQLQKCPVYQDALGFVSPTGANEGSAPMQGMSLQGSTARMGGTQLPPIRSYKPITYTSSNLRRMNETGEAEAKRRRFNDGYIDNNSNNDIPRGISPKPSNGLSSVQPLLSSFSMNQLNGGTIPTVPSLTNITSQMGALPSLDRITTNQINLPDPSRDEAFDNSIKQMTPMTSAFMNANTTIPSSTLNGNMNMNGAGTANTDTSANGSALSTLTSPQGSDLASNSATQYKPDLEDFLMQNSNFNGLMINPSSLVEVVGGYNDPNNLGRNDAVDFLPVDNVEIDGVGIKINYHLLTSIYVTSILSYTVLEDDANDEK

Sequence	PBM E-score
CAGATGTC	0.0461
AACGGAGC	0.241
GGCTGCCA	-0.0802
CCCCGTAC	0.0387
GACAATGC	0.024
GAGATCCA	-0.0353
CGCGATCC	0.0148
GTCAATTA	-0.16
ACGGTGCG	0.0448
ACACGAAA	-0.0401
TAGTTATA	-0.0796
GGCAACAA	-0.111
AGAGATTC	-0.039
AATTCCGA	0.43
AGATCTGG	-0.187
CATCTTCG	-0.0503
GTCACTGA	-0.065
ATTCTGAG	-0.0623
TATTGTCA	-0.161
ATTTCACA	-0.131
ACATGCCT	-0.141
ACCGCCGA	0.36
CTTACAAA	-0.0557
GTGGAAAA	-0.12
GTGCGAAA	-0.043

Sequence	PBM E-score
AGACCACG	-0.178
AAACAAGA	-0.0194
AGGACTTC	-0.152
AGCAGCGC	-0.1
GGTGAGTA	-0.186
AGTAGCAA	-0.0345
CAAAACCC	0.219
CGCGCCAC	0.0206
AGACCCAA	-0.144
CCAGCGTC	0.0197
CACTCATC	-0.0533
AACGCCTA	-0.0611
ACACACTC	-0.236
CATGAATA	-0.293
ATCACACA	-0.207
CATCGACA	-0.0278
AAGTGTGG	0.044
AGTCCTCG	-0.0664
AGGCCTGC	-0.0481
GGAGCGGA	0.218
CGGGAACG	0.226
ACCCCGAG	0.348
ACTGACGG	0.139
ACTCCCTC	-0.226
ACCATTGG	-0.179

Sequence	PBM E-score
GACGCATA	0.1
ACGTCTAC	-0.179
CCAGAGCG	-0.141
AAATCCCC	0.169
CTAACTAA	-0.175
AGCCTGAA	-0.0194
ATGCTCGC	-0.242
AACTTGGC	-0.0943
GTGGGCAA	-0.118
AAGTCGCC	0.0232
CAGGCAAA	-0.0524
GCGCTAAC	0.0252
CCTGGACC	-0.257
ACCCCACG	0.0257
ATCGGAAC	0.318
ACTCCGAC	0.353
ATGCTAAC	-0.112
CCACCTAA	-0.224
AGACCGCT	0.0523
CTCAGAAG	-0.188
ACGGGTGG	0.16
CATAACAA	0.00786
AAAATTGC	0.00503
CATCGAGA	-0.0895
CAATGGTG	-0.314

Sequence	PBM E-score
ATGGTTCC	0.0504
CGACCGAG	0.371
GTGGGAGA	-0.15
CAACTTGC	-0.169
CGCGCACA	0.0274
AAAATGTC	0.0263
AGCTCTGG	-0.0783
GACGTACA	0.0308
GTTTCAGA	-0.131
ACCCAAGA	-0.184
AGCGAGCC	0.073
AGAGAGTC	-0.252
CCGTCGGC	0.33
CAACCCGG	0.182
TGATCAAA	-0.18
ATAGTAAA	-0.076
GAAATAGC	0.131
AACCGCCA	-0.0639
CCAGTCAC	-0.132
CGTTACCC	-0.0123
CTGCGGCA	-0.0609
TAGCGTCA	-0.154
CCATAGCC	-0.0525
CAGCCCCG	0.226
CCGGCCGA	0.453

Sequence	PBM E-score
CACTCTTC	-0.127
ATCGGCAT	0.331
GTTAATGA	-0.0665
CGACAGCC	-0.0487
AAGACATC	-0.119
CACGCAGG	-0.0746
GATTTCCA	-0.0294
ATAGCTGA	-0.0318
AAACCAGG	-0.101
ACCCTCAC	-0.201
GGAAGATA	0.0526
CGCACCTC	0.0468
AAGCTAGA	-0.234
CAGTTGCA	-0.184
CATGTTAC	-0.147
GTAGCAAA	-0.0522
CCGTCAAC	-0.115
AATCCACA	-0.0108
AGGTTGGG	-0.164
CACCCCAG	-0.139
TCACCCCA	-0.032
AATATCCA	0.0415
AGTATGAC	0.0729
AAAATGTG	-0.0183
CCGTGATA	0.175

Sequence	PBM E-score
GAGTGGAC	-0.0763
GCGATGAC	0.116
ATATAGAT	-0.0761
GTCGTGTA	-0.305
AACCCACG	-0.0614
AAATGTCC	0.282
AATGGCGT	-0.091
AAATTCCC	0.145
GCGCTACA	0.0107
GGGGGATA	0.134
AAGTAAGA	-0.321
AAGGCACG	0.106
ACTCATCG	-0.0326
GACAGGAC	-0.0139
CGTGTCCC	0.0457
GGCCAGGA	-0.089
CATCTTTC	-0.224
ACACCCAT	-0.0848
GCTAACGA	0.113
AACTTACA	-0.241
CATAAATG	-0.195
CGTAAAAC	0.145
CGACATTA	0.122
GTAGCCTA	-0.403
GTAGCGAC	-0.132

Sequence	PBM E-score
GCATTGAA	-0.059
AGCCAGAC	-0.107
GGCCTAGA	-0.119
AGGTAGTC	-0.0462
ACTCTGAC	-0.00146
ATGATTTC	0.065
ATCCTGGA	-0.194
GGTCCATA	0.0375
GTGAAACA	-0.177
CCCCCAGG	-0.288
GATAGGCA	-0.225
CAAACTCC	0.228
TGAGCTAA	-0.141
AGAGACAA	-0.0839
AACATGGT	-0.211
GGAGCTAA	0.325
CGCGTGAA	0.0387
ATGGTCAG	-0.139
GAACTGGA	0.0859
TATGAAAA	-0.0206
AGGATTAA	0.034
GGACGCCA	-0.0384
GCCGACCA	0.209
CATAGGGG	-0.087
ATCCTAAC	-0.00064

Sequence	PBM E-score
CGAGCCGC	0.248
AGGTAAGG	-0.214
AGACTACT	-0.131
ACAAATGA	-0.227
GCGTTGCC	0.167
CTTAGCGA	-0.0415
GACCATTA	-0.0365
ACTTACAC	-0.164
AGCGCCTG	0.104
CAATGTCG	-0.0178
AATGAGTC	-0.121
TACCGAAA	0.188
TACACAGA	-0.311
CCTTACAC	-0.193
AACAAGCG	0.123
ATGCTTAG	-0.194
AAGAAGCT	-0.082
AGAGATTG	-0.0978
AGAGCTGA	-0.194
ATTGTTCC	0.249
AGGCGGAG	0.175
GCGCAGCC	-0.0639
AGTCGGCA	0.0618
AAGCTCGG	0.36
CTCCTAAA	-0.263

Sequence	PBM E-score
CAATATTA	0.0504
TAGGAAAA	-0.13
ACCGCTTA	-0.0802
AATGAAGC	-0.133
CCCTGTCC	-0.139
GACTTGAC	-0.102
CCGTCTTA	-0.122
GCGGCAAA	0.202
AATCCCCC	0.133
ATGTAATC	-0.0965
AATCGCTG	0.227
CGAATGTA	0.108
CAGCAAGA	-0.0234
CGCCATTA	0.143
CTGCAAAC	-0.234
CAGCTCGC	-0.0482
AGTTGAAT	-0.0992
AAAGAGCT	-0.201
AATTTCTC	0.107
TCCACCAA	-0.18
ATGGACTG	-0.203
CTGAAAGC	0.0591
GCAAGCGA	-0.099
CGACAACC	-0.0547
AAGGGATA	-0.232

Sequence	PBM E-score
AACCAAGA	-0.137
GAAATTTC	0.235
AGGACCGC	0.168
GAGTACTA	-0.0444
AGCTATAG	-0.244
CGACTACA	-0.184
GGGGGTAC	0.215
AGCAAAGA	-0.228
AACGTTGG	-0.218
AGGAGACT	-0.218
CACGCTCA	-0.0603
CGTGCGCC	0.0375
ATGTGCGA	-0.0499
GCGGATAC	0.206
CACCAAGA	-0.104
ATTGGTCC	0.171
ATGGCGGA	0.188
GGGTAGGA	0.00042
CTAAAGGA	-0.033
CCGAACGG	0.342
CTCCACAA	-0.189
GCCCAAAA	-0.112
ATTTTTTG	0.0593
AGTGGCAA	-0.152
AACCCTCC	0.0459

Sequence	PBM E-score
ATAAGTCG	0.0327
AACGACTT	-0.236
CTTAGAAG	-0.131
AGCATCGC	0.0983
AGCGTATG	0.0702
GACTCCTA	-0.279
CCCGGGTA	0.315
AAACGTTG	-0.222
CATTCTAC	-0.121
CAATACTA	-0.193
CAGTCATG	-0.145
GTTCCTCA	-0.0529
AGCAATAG	-0.114
AACATACA	-0.113
ACCGTGCG	0.149
CGGCTTAA	0.391
GTAGGCAA	-0.267
AGAGGCTA	-0.256
ACGTCGTG	-0.141
CCCCACAG	-0.3
GATCTACC	-0.0369
ATTGCTGG	-0.186
ACGTCTTG	-0.203
CTATGGAC	-0.00574
TATCCACA	-0.16

Sequence	PBM E-score
AGTTTCCA	-0.133
CTGGCTAC	-0.182
CGGGCTGC	0.156
GATTTATA	0.146
AACCCTGC	-0.165
ACAATCCT	-0.141
CACATATG	-0.336
ATGTGTCA	-0.244
CGTAGCTA	-0.112
AATAATCC	0.164
GTACCTAA	-0.248
ACCCGCCC	0.191
AACTCTGG	-0.202
GAGTATGA	0.151
ACTATTGA	-0.0546
TCCGATAA	0.45
AGTGGATA	-0.0193
GACGGATA	0.223
ATCGCTTA	-0.0437
CGGGGGAG	0.256
TGCACTAA	-0.0422
AGATTCGG	0.31
AGCACATC	0.0396
CCAGCTTC	-0.166
CGCACTAC	0.0586

Sequence	PBM E-score
CCCCTACG	-0.145
CACGGTAG	-0.0323
ACCACTTG	-0.262
CAAGGATA	-0.115
GTCGTTAA	0.0118
CCCAAAAC	-0.161
AGCCCCTC	-0.208
CACTAGTG	-0.215
CATTATGA	-0.202
AGACGGGG	0.119
CTGAATAA	-0.139
TAATTATA	0.148
GGCGAAGA	0.0827
ACCAAGGA	-0.0951
ATCGGGGC	0.308
AATAGACT	-0.163
ACTCTCCC	0.189
ATAACCCC	0.244
CAGTACTA	-0.208
CCGTGTAC	0.094
CTTCCATC	-0.0451
CGACCAGA	0.0439
GATCTTGC	0.103
ATCAGTTG	-0.252
ATCGCACG	-0.0952

Sequence	PBM E-score
TCGGCAAA	0.168
GAGCGATC	0.0915
AAGCGCGA	0.101
GACATAGC	0.0141
AAGTAGAA	-0.218
ACAAGACC	-0.0664
ACCAGGAG	0.0524
CGAAATAG	0.137
CTCGAAGC	-0.12
CTCATAAG	-0.145
TCTGCGCA	-0.0847
AGAGGTAC	-0.115
GACGAAGC	-0.0487
GGAACGAC	-0.188
CATCCCCC	0.0864
CGTCCGAC	0.302
ATATAGTA	-0.156
GCCGCGAA	0.15
CTAATAGA	-0.0855
